# Experimental data reported in PubChem BioAssay AID1347073 (National Center for Advancing Translational Sciences (NCATS), 2019).
# About 200 (0.44%) of roughly 45,000 compounds were called active. About 7% were inconclusive and are not listed. Calls come from the whole dose curve; as a rule, active = well fitted activation curve with a large enough effect; inconclusive = small, poorly fitted or top-dose-only effect; inactive = no such curve, though single readings can be large or run the other way. The list shows a part of the results.
# Assay: qHTS of TDP-43 Inhibitors: NCGC Sytravon Library Screen; note: 0% is about no effect; nearly all actives have a fitted effect of over 55% in size
# Conditions: yeast TDP-43 toxicity rescue, BacTiter-Glo growth, 24 h; series mostly up to 46.1 µM; growth rescue (activation): at the top concentration
# Procedure, shortened: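 TDP-43-expressing yeast, pregrown in raffinose, seeded at OD600 0.02 in galactose medium with compound for 24 hr at 30 deg C. Growth read by BacTiter-Glo luminescence, so rescue of toxicity appears as activation.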
row,Structure (SMILES),growth rescue (activation)
1,Cc1ccc(-c2nnc(Nc3ccc(C(=O)N(C)C)cc3)c3ccccc23)cc1S(=O)(=O)NC(C)(C)CO,inactive: 24.7%
2,Cn1c(=O)cc(SCC(=O)NCc2ccc(F)cc2)c2ccccc21,inactive: 12.5%
3,COc1cc(OC)c(CN2CCC(CO)(CCOc3ccccc3)CC2)c(OC)c1,inactive: 6.04%
4,CCCOC(=O)c1ccc(NC(=O)CN(C)Cc2cccs2)cc1,inactive: 4.74%
5,Cc1csc(=O)n1CCC(=O)N(C)Cc1c(F)cccc1Cl,inactive: 15.2%
6,Cc1[nH]c2ccccc2c1C(c1ccncc1)N1CCN(c2ccc(F)cc2)CC1 (centres undefined),inactive: 10.1%
7,O=C(CSc1nnc(-c2ccccc2)n1-c1ccc(Cl)cc1)NNC(=S)Nc1ccccc1,inactive: 29.1%
8,CCc1cccc2c(C(=O)C(NCCCOC)c3ccccc3)c[nH]c12 (centres undefined),inactive: 7.4%
9,Cc1ccc(-c2cc(C(=O)NCC(c3ccccc3)N(C)C)c3ccccc3n2)o1 (centres undefined),inactive: -19.7%
10,O=C(CCN1C(=O)/C(=C/C=C/c2ccccc2)SC1=S)Nc1nc2ccccc2s1,inactive: 8.13%
11,O=C(/C(=N\O)n1cncn1)c1ccc(Cl)cc1Cl,inactive: 17.6%
12,O=C(NCc1ccccn1)c1ccc(OC2CCN(Cc3ccccc3O)CC2)cc1,inactive: 5.88%
13,COc1ccc(/C(C)=N/Nc2ccccc2Cl)c(O)c1,inactive: 6.01%
14,CCOc1ccc(S(=O)(=O)N2CCN(CC)CC2)cc1NC(=O)c1ccccc1F,inactive: 3.31%
15,O=C(O)C1=NOC(CNc2ncc(C(F)(F)F)cc2Cl)C1 (centres undefined),inactive: 2.2%
16,Cc1ccc(S(=O)(=O)N2CCCCC2)cc1C(=O)OCC(=O)N1c2ccccc2NC(=O)C1(C)C,inactive: 10.6%
17,CC1(C#CC[N+]2(C)CCCCC2)CCC2C(O1)c1ccccc1OC2(C)C (centres undefined),inactive: 5.99%
18,O=Cc1ccc(-n2cccn2)cc1,inactive: 7.58%
19,CC(C(=O)NCc1ccccc1Cl)N1C(=O)c2ccccc2C1=O (centres undefined),inactive: 0.181%
20,O=C(NC1CCCCC1)c1cc(S(=O)(=O)N2CCOCC2)c(Cl)cc1Cl,inactive: -28.7%
21,Cc1cc(C)n(CCNS(=O)(=O)c2ccc(C)c(C)c2)n1,inactive: 9.41%
22,c1cc(-c2ccsc2)n2cnnc2c1,inactive: -3%
23,Cc1occc1C(=O)N/N=C/C=C/c1ccccc1,inactive: -6.79%
24,CC1(C)CC(=O)C(CC2CCCCC2=O)C(=O)C1 (centres undefined),inactive: 6.02%
25,O=C(CSCc1ccc(Cl)cc1Cl)Nc1ccccc1C(=O)Nc1ccc(C(=O)O)cc1,inactive: 2.14%
26,Cc1ccccc1C(=O)Nc1nnc(S(=O)(=O)N2CCCCCC2)s1,inactive: 9.05%

row,Structure (SMILES),growth rescue (activation)
1,O=C(NCCCNC(=O)c1ccccc1Cl)c1cnccn1,inactive: -8.14%
2,CCc1ccccc1NC(=O)COc1ccc2c(=O)c(Oc3cc(C)ccc3C)coc2c1,inactive: -7.67%
3,COc1ccccc1-n1cc(-c2ccc(Cl)cc2)[nH]c1=O,inactive: -1.02%
4,O=C(NCC1CCCO1)C(=O)N/N=C/c1c(F)cccc1Cl (centres undefined),inactive: 16.4%
5,N/C(=N\OC(=O)CCCOc1ccccc1)c1ccccn1,inactive: -7.24%
6,O=C(CNCCc1ccc(Cl)cc1)Nc1ccc(C(=O)N2CCCCC2)cc1,inactive: 5.79%
7,COc1ccc(-c2cc(C)nc(SCc3cccc(C(=O)O)c3)n2)cc1,inactive: 10.2%
8,O=C(CCSCCc1ccccn1)Nc1c(F)c(F)c(F)c(F)c1F,inactive: 19.2%
9,O=S(=O)(c1ccc(Cl)cc1)N1CCN(Cc2ccncc2)CC1,inactive: -7.85%
10,c1ccc2c3c([nH]c2c1)C(C1CCCCC1)N(Cc1ncc[nH]1)CC3 (centres undefined),inactive: 1.92%
11,Cc1ccc(S(=O)(=O)NC(=O)C2(C)CCN2C(=O)CCc2ccc(Cl)cc2Cl)nc1 (centres undefined),inactive: 1.46%
12,COc1ccc(C2(CNC(=O)c3cc(OC)c(OC)c(OC)c3)CCCC2)cc1OC,inactive: 5.4%
13,COc1ccc(OC)c(CCNC(=O)CCc2cn(C)c3ccccc23)c1,inactive: 0.899%
14,O=C(Cn1cnc2cc([N+](=O)[O-])ccc2c1=O)N1CCN(S(=O)(=O)c2ccccc2)CC1,inactive: -9.34%
15,Cc1ccccc1NC(=O)CSc1nc(N)c2c3c(sc2n1)CSC(C)(C)C3,inactive: 22.3%
16,Cc1ccnc(SCC(=O)N2CCc3ccccc32)n1,inactive: 4.68%
17,O=C(O)CCn1cc(/C=N/O)c(-c2cccc([N+](=O)[O-])c2)n1,inactive: -3.07%
18,Cc1nn(C(C)C(=O)N2CCCCC2)c(=O)c2c1sc1ccccc12 (centres undefined),inactive: 7.57%
19,COc1cccc(-c2coc3c(C)c4oc(=O)c(CCC(=O)O)c(C)c4cc23)c1,inactive: -87%
20,CCc1nc2c(OCc3ccc(C(F)(F)F)cc3)cccn2c1N(C)C(=O)C(C)C,inactive: 2.1%
21,Cn1c(COc2ccc(Br)cc2)nnc1SC1CCc2ccccc2C1=O (centres undefined),inactive: 13.1%
22,Cc1cccc(C(=O)NCc2nnc(SCC(=O)Nc3nnc(C)s3)n2C)c1,inactive: -21.3%
23,CCOC(=O)c1cnc2ccccc2c1Nc1ccc(C(=O)O)cc1,inactive: 9.52%
24,Cc1noc(C)c1COC(=O)COc1ccc(C#N)cc1,inactive: 13.9%
25,O=C(NNC(=O)C12CC3CC(CC(C3)C1)C2)c1ccco1,inactive: 1.66%
26,O=C(NCC1CCN(Cc2ccccc2Cl)CC1)Nc1cccc(Cl)c1,inactive: -5.33%

row,Structure (SMILES),growth rescue (activation)
1,Cc1cccc(/C=N/NC(=O)c2cccc([N+](=O)[O-])c2)n1,inactive: -9.97%
2,COC(=O)c1cc(Cn2nc(C(=O)O)c3ccccc3c2=O)oc1C,inactive: -1.22%
3,COCCN(C(=O)CSc1nc2ccc(C)cc2[nH]1)c1c(N)n(Cc2ccccc2)c(=O)[nH]c1=O,inactive: 5.05%
4,CCNC(=O)c1ccc(N(C)S(=O)(=O)c2cccs2)cc1,inactive: 20%
5,O=C(Nc1ccccc1F)c1ccc(Cn2cc(Cl)cn2)cc1,inactive: 9.96%
6,CN(Cc1ccno1)Cc1cn(C)nc1-c1ccc(Oc2ccccc2)cc1,inactive: 11.6%
7,COc1ccc(Br)c(C(=O)Nc2nc3ccccc3[nH]2)c1,inactive: -7.89%
8,COc1ccc(-c2nc(NC(=O)c3ccc(OCC(=O)Nc4ccc(F)cc4)c(OC)c3)sc2C)cc1,inactive: -23.5%
9,O=C(/C=C/c1ccc2c(c1)OCO2)N1CCN(c2ccc(Cl)cc2)CC1,inactive: 12%
10,O=Cc1c(N2CCN(CCO)CC2)nc2ccccn2c1=O,inactive: -4.58%
11,CC1=NNC(=O)C1CC(=O)N/N=C/C=C/c1ccccc1 (centres undefined),inactive: 11%
12,CCN(Cc1ccccc1)C(=O)COC(=O)[C@@H]1CCCN1C(=O)c1cccs1,inactive: 8.94%
13,Cc1cc(C)n(CCNCc2c(C(=O)N3C[C@@H](C)O[C@@H](C)C3)nc3ccc(Cl)cn23)n1,inactive: 10.2%
14,CCCc1ccc(OCCNC(=O)C2CCCCC2)cc1,inactive: 10.9%
15,CCCNC(=O)c1cc(C2CCCCN2C(=O)c2cccs2)on1 (centres undefined),inactive: 4.36%
16,O=C(COC(=O)/C=C/c1ccc(F)cc1)NC1CCCCCC1,inactive: 8.94%
17,COc1cccc(CN(C)CC(=O)Nc2cc(S(=O)(=O)N3CCCC3)ccc2Cl)c1OC,inactive: 1.97%
18,O=C(NCc1ccco1)/C(=C\c1ccco1)NC(=O)c1ccccc1Cl,inactive: 2.89%
19,CCc1nnc(NS(=O)(=O)c2ccc(NC(=O)c3ccc(S(=O)(=O)N(CC)CC)cc3)cc2)s1,inactive: 12.6%
20,Cc1cc([N+](=O)[O-])nn1Cc1noc(C(=O)NCc2ccc3c(c2)OCO3)n1,inactive: 13.3%
21,CCn1c(SCC(=O)NC2CCCC2)nc2c1c(=O)n(C)c(=O)n2C,inactive: 10.3%
22,O=C(NCc1ccccn1)C1CCN(S(=O)(=O)c2cc(Cl)ccc2Cl)CC1,inactive: 10.9%
23,O=C(O)c1ccccc1-c1ccccc1C(=O)Nc1nc2ccccc2s1,inactive: 11.6%
24,COCCCNC(=O)Cn1cnc2sc(C)c(S(=O)(=O)N3CCN(c4ccccc4OC)CC3)c2c1=O,inactive: -9.3%
25,O=C(COC(=O)C1CCN(S(=O)(=O)c2ccc3c(c2)OCCO3)CC1)Nc1ccccc1OC(F)F,inactive: 6.21%
26,CC1=C(C(=O)OCCCCCl)C(c2cc3c(cc2Br)OCO3)NC(=O)N1 (centres undefined),inactive: -2.28%

row,Structure (SMILES),growth rescue (activation)
1,COc1ccc(/C(C)=N/NC(=O)CNC(=O)C2COc3ccccc3O2)c(OC)c1 (centres undefined),inactive: 13.3%
2,COc1ccc(-c2nc3n(n2)C(=O)CC(c2ccc(Cl)cc2)S3)cc1 (centres undefined),inactive: 12.9%
3,CCOC(=O)c1ccc(NC(=O)CC2NCCNC2=O)cc1 (centres undefined),inactive: 1.24%
4,CCCCN(C)c1c(C)nc2ccc(C(=O)N3CCN(C(C)=O)CC3)cn12,inactive: -5.57%
5,CC12CCC(C(=O)N(c3cccc(Cl)c3)C1=O)C2(C)C (centres undefined),inactive: -4.17%
6,CN1/C(=C\C(=O)COC(=O)c2ccc(O)c(O)c2)C(C)(C)c2ccccc21,inactive: 32.4%
7,CCc1nc2ccccc2c(C(=O)OCC(=O)NCc2ccc3c(c2)OCO3)c1C,inactive: 13.6%
8,Cc1ccccc1NC(=S)N1CCN(Cc2ccccc2)CC1,inactive: -8%
9,Cc1nc(CNC(=O)CC2C(=O)NCCN2Cc2ccc(F)cc2)cs1 (centres undefined),inactive: 11.2%
10,CSc1ccccc1OCc1cc(C(=O)NCCCc2ccccc2)no1,inactive: 1.38%
11,CCc1cccc2c1NC(=O)C21N2CCCC2C(C(=O)c2ccc3ccccc3c2)C12C(=O)Nc1ccccc12 (centres undefined),inactive: 1.9%
12,COc1cccc(CN2CCC(C)(Oc3cccc(Cl)c3)C2)c1OC (centres undefined),inactive: 5.43%
13,CCn1c(/C=C/N(C(C)=O)c2ccccc2)[n+](CCCS(=O)(=O)[O-])c2cc(Cl)c(Cl)cc21,inactive: 4.69%
14,Cc1ccc(OCC(=O)NNC(=O)CSc2ncc(C#N)c(N)n2)cc1,inactive: -20.8%
15,O=C(CCNC(=O)c1ccccc1Cl)NCC12CC3CC(CC(C3)C1)C2,inactive: 2.03%
16,CCCCn1c(/C=C/c2ccco2)nc2ccccc21,inactive: 4.83%
17,CCCN1C(=O)/C(=C/C=C2\N(CC)c3ccccc3C2(C)C)SC1=S,inactive: 0.16%
18,COc1cc(C2c3c(-c4cc(Cl)c(C)cc4O)n[nH]c3C(=O)N2Cc2cccnc2)ccc1O (centres undefined),inactive: 10.5%
19,CCOC(=O)c1cc(NC(=O)CN2CCCC2)cc(C(=O)OCC)c1,inactive: -1.87%
20,O=C(Nc1ccc(F)cc1)N1CCN(CCc2ccccc2)CC1,inactive: 3.86%
21,O=C(/C=C/c1ccc(OCc2ccccc2)c(OCc2ccccc2)c1)c1cccnc1,inactive: 17%
22,Cc1ccc(N(C(=O)c2ccco2)C(C(=O)NC2CCCC2)c2cccnc2)cc1 (centres undefined),inactive: 8.03%
23,COc1ccc(CC(=O)Nc2nc(-c3ccccc3)c(C(C)=O)s2)cc1OC,inactive: 7.05%
24,Cc1ccccc1C(=O)Nc1nnc(-c2ccc(C(C)(C)C)cc2)s1,inactive: 6.75%
25,CC(C)(C)C(=O)N1CCN(c2ccc(NC(=O)c3ccc([N+](=O)[O-])o3)cc2)CC1,inactive: 25.6%
26,Cc1ccc(C(C(=O)NCC2CCCO2)N(C(=O)c2snc(C(N)=O)c2N)c2ccccc2)o1 (centres undefined),inactive: 14.8%
